Where a name gives a salt, the structure may show the parent alone. ± gives the standard deviation of the averaged measurements. This is one part of the list.

In the assay the test system is OVCAR8. Nature of the assay: cell count relative to DMSO vehicle (fold change); OVCAR8 is a high-grade serous ovarian cancer line and CX-5461 an RNA polymerase I inhibitor; higher = more surviving senescent cells (less killing). Particulars: senescence inducer: CX-5461 3 µM 48 h, then 6 d recovery (CX senescent), exposure time 24 h.

Take `COc1ccc(NS(=O)(=O)c2c(F)c(F)c(F)c(F)c2F)cc1F` [Batabulin]: the cell count runs as follows: (compound dose 1 µM) 1.14 ± 0.14; (compound dose 5 µM) 1.12 ± 0.03.
Consider `COc1ccc(NS(=O)(=O)c2c(F)c(F)c(F)c(F)c2F)cc1F` [Batabulin (sodium)], for which the cell count is, setting by setting: (compound dose 1 µM) 1.08 ± 0.1; (compound dose 5 µM) 1.17 ± 0.044.
Taken in the same sequence, the figures for `CC(=O)Cc1cc(=O)c2c(C)cc(O)c([C@@H]3O[C@H](CO)[C@@H](O)[C@H](O)[C@H]3O)c2o1` [Aloesin] were 1.01 ± 0.31 and 0.9 ± 0.29.
Taken in the same sequence, the figures for `O=C(NC1CCNCC1)c1n[nH]cc1NC(=O)c1c(Cl)cccc1Cl` were 1.09 ± 0.013 and 1.05 ± 0.024.
Taken in the same sequence, the figures for `CC[C@@H](N)CNc1ccnc(-c2cc(-c3cnn(C)c3)ccc2O)n1` were 1.05 ± 0.11 and 0.858 ± 0.018.
As to `O=C(O)/C=C/c1ccc(-c2ccc(O)c(C34CC5CC(CC(C5)C3)C4)c2)cc1` [Adarotene], the cell count runs as follows: (compound dose 1 µM) 0.999 ± 0.32; (compound dose 5 µM) 1.02 ± 0.26.
With `Oc1cccc(O)c1O` [Pyrogallol], the cell count runs as follows: (compound dose 1 µM) 1.17 ± 0.14; (compound dose 5 µM) 1.11 ± 0.17.
Taken in the same sequence, the figures for `COC1=CC(=O)C[C@@H](C)[C@]12Oc1c(Cl)c(OC)cc(OC)c1C2=O` [Griseofulvin] were 1.08 ± 0.016 and 1.06 ± 0.017.
Taken in the same sequence, the figures for `Cn1cc(-c2cnc(N)c3c(-c4ccc5c(c4)CCN5C(=O)Cc4ccccc4)csc23)cn1` were 1.1 ± 0.096 and 0.668 ± 0.037.
Taken in the same sequence, the figures for `CC(C)(C)c1cc(/C=C(\C#N)C(N)=S)cc(C(C)(C)C)c1O` [Tyrphostin AG 879] were 1.19 ± 0.24 and 1.15 ± 0.27.
As for `COc1cccc(OCCCN)c1-c1cc(Nc2cnc(C#N)cn2)n[nH]1` [Prexasertib], the cell count is, setting by setting: (compound dose 1 µM) 0.614 ± 0.033; (compound dose 5 µM) 0.425 ± 0.016.
As for `Fc1ccc(-n2cc(CCCCN3CCC4(CC3)OCc3ccccc34)c3ccccc32)cc1` [Siramesine (hydrochloride)], the cell count turned out to be 1.13 ± 0.21 (compound dose 1 µM) and 1.42 ± 0.29 (compound dose 5 µM).
For the compound `CC(=O)Nc1ccc(C2=NNC(=O)C[C@H]2C)cc1`, the cell count was determined as 0.99 ± 0.21 (compound dose 1 µM) and 1.13 ± 0.3 (compound dose 5 µM).
Consider `N=C1S/C(=C\c2ccc(-c3ccc4c(c3)C(=O)NC4=O)o2)C(=O)N1c1ccc(Br)cc1` [Bioymifi], for which the cell count by setting is: (compound dose 1 µM) 1.01 ± 0.14; (compound dose 5 µM) 1.01 ± 0.14.
Consider `COc1ccc(COc2cc3oc(=O)c4cc(C(C)O)ccc4c3cc2OC)cc1` (stereo not drawn) [Palomid 529 (P529)], for which the cell count runs as follows: (compound dose 1 µM) 1.19 ± 0.034; (compound dose 5 µM) 1.06 ± 0.045.
Taken in the same sequence, the figures for `CC(C)(C)NC(=O)[C@@H]1CN(Cc2cccnc2)CCN1C[C@@H](O)C[C@@H](Cc1ccccc1)C(=O)N[C@H]1c2ccccc2C[C@H]1O` [Indinavir (sulfate)] were 1.19 ± 0.11 and 1.05 ± 0.22.
Regarding `COC(=O)Nc1nc2cc(C(=O)c3ccc(F)cc3)ccc2[nH]1` [Flubendazole], the cell count by setting is: (compound dose 1 µM) 1.15 ± 0.067; (compound dose 5 µM) 1.01 ± 0.049.
Turning to `CC[C@@H]1C(=O)N(C)c2cnc(Nc3ccc(C(=O)NC4CCN(C)CC4)cc3OC)nc2N1C1CCCC1`, the cell count runs as follows: (compound dose 1 µM) 1.18 ± 0.082; (compound dose 5 µM) 1.15 ± 0.14.
Taken in the same sequence, the figures for `CCCCC[C@H](O)CC(=O)CCc1ccc(O)c(OC)c1` [[6]-Gingerol] were 1.14 ± 0.3 and 1.026 ± 0.0035.
Taken in the same sequence, the figures for `Fc1ccc(CNc2ncnc3ccc(F)cc23)cc1` [Spautin-1] were 1.04 ± 0.18 and 0.947 ± 0.23.
As for `CCCCCCCC/C=C\CCCCCCCC(=O)O` [Oleic acid], the cell count by setting is: (compound dose 1 µM) 0.997 ± 0.27; (compound dose 5 µM) 1.14 ± 0.35.
Regarding `CN1CCC(CNc2ccc3ncc(-c4cccc(OC(F)(F)F)c4)n3n2)CC1` [SGI-1776 free base], the cell count runs as follows: (compound dose 1 µM) 1.17 ± 0.084; (compound dose 5 µM) 1.12 ± 0.14.
Taken in the same sequence, the figures for `COc1cc2c(cc1OC)[C@@H]1Cc3ccc(OC)c(OC)c3CN1CC2` were 1.17 ± 0.2 and 1.11 ± 0.088.
Taken in the same sequence, the figures for `O=C(O)C[C@H](O)C[C@H](O)/C=C/c1c(C2CC2)nc2ccccc2c1-c1ccc(F)cc1` [Pitavastatin (Calcium)] were 0.905 ± 0.21 and 0.717 ± 0.14.
Taken in the same sequence, the figures for `C[C@@H]1O[C@@H](OC[C@H]2O[C@@H](Oc3cc(O)c4c(c3)O[C@H](c3ccc(O)c(O)c3)CC4=O)[C@H](O)[C@@H](O)[C@@H]2O)[C@H](O)[C@H](O)[C@H]1O` [Eriocitrin] were 1.06 ± 0.19 and 1.05 ± 0.065.
As to `Cc1ccc(NCCN(C)CCNc2ccnc3cc(Cl)ccc23)c2c(=O)c3ccccc3sc12`, the cell count is, setting by setting: (compound dose 1 µM) 0.916 ± 0.16; (compound dose 5 µM) 1.04 ± 0.041.
Taken in the same sequence, the figures for `N#CCCCSC(=N)N` [Kevetrin (hydrochloride)] were 1.1 ± 0.11 and 1.13 ± 0.089.
`CCNC(=O)c1noc(-c2cc(C(C)C)c(O)cc2O)c1-c1ccc(CN2CCOCC2)cc1` [Luminespib]: the cell count (compound dose 1 µM) was determined as 0.995 ± 0.035 and the cell count (compound dose 5 µM) was found to be 0.871 ± 0.053.
Taken in the same sequence, the figures for `NS(=O)(=O)Cc1noc2ccccc12` [Zonisamide] were 1.11 ± 0.29 and 1.15 ± 0.12.
For the compound `CN(C)C(=O)c1cc2cnc(Nc3ccc(NC(=O)CCCCCCCN=C=S)cc3)nc2n1C1CCCC1`, the cell count worked out at 1.02 ± 0.14 (compound dose 1 µM) and 0.709 ± 0.0014 (compound dose 5 µM).
For `O=C1Nc2ccc(I)cc2/C1=C/c1cc(Br)c(O)c(Br)c1`, the cell count came to 1.07 ± 0.071 (compound dose 1 µM) and 1.03 ± 0.27 (compound dose 5 µM).
Take `CON(C)C(=O)N1N=C(c2cc(F)ccc2F)S[C@@]1(CCCN)c1ccccc1` [Filanesib]: the cell count turned out to be 0.981 ± 0.12 (compound dose 1 µM) and 0.929 ± 0.22 (compound dose 5 µM).
Consider `NC(=O)N1c2ccccc2CC(=O)c2ccccc21`, for which the cell count is, setting by setting: (compound dose 1 µM) 1.03 ± 0.1; (compound dose 5 µM) 1.05 ± 0.087.
For the compound `COC(=O)[C@]12OC[C@]34[C@H]([C@@H](O)[C@@H]1O)[C@@]1(C)CC(=O)C(O)=C(C)[C@@H]1C[C@H]3OC(=O)[C@H](OC(=O)C=C(C)C)[C@@H]24` [Brusatol], the cell count runs as follows: (compound dose 1 µM) 0.856 ± 0.2; (compound dose 5 µM) 0.586 ± 0.13.

The values above are taken from the supplement of paper PMC12462457.
